Out of some 410,000 compounds screened, about 7,200 (1.8%) were called active. This list was built around the results that the source calls inconclusive (neither active nor inactive); the mix of calls is not that of the screen. Calls come from the whole dose curve; as a rule, active = well fitted activation curve with a large enough effect; inconclusive = small, poorly fitted or top-dose-only effect, or another doubt; inactive = no such curve, though single readings can be large or run the other way. Where the call is inconclusive, the potency comes from a doubtful curve fit. Where a structure was tested more than once in an assay, its records may differ in their call.
Assay: qHTS of TDP-43 Inhibitors; note: nearly all actives have a fitted effect of over 50% in size; for growth rescue (activation): % of control where 0% means no effect
Conditions: TDP-43 expressing yeast growth rescue, BacTiter-Glo, 24 h; growth rescue (activation): at 46.1 µM (top of the series) unless noted
How it was run: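 Luminescence from BacTiter-Glo reports growth of TDP-43-expressing yeast after 24 hr at 30 deg C with compound. Cells were raffinose-pregrown to mid-log, then seeded in galactose medium at OD600=0.02.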
Potency is the fitted concentration of half-maximal effect; tags give direction and shape of the fitted curve.

Potency, inconclusive:
COc1ccc(-c2cn(CCCOCc3ccccc3)nn2)cc1 11.2 µM [activator, partial curve]
Cn1c(=S)[nH]c2scc(-c3cccs3)c2c1=O 20 µM [activator, partial curve]
COC(=O)Nc1ccc(C)c2nsnc12 3.55 µM [activator, partial curve]
CC(C)c1ccc(NC(=S)NNC(=O)c2cccs2)cc1 1.78 µM [activator, full curve]
COc1cccc(-c2noc(-c3ccc(Cl)nc3)n2)c1 12.6 µM [activator, single point]
O=C(c1cc(COc2ccc(F)cc2Cl)on1)N1CCCCCCC1 12.6 µM [activator, partial curve, poor fit]
CCCCCN(C(=O)NC(=O)Nc1ccc(C)cc1)S(=O)(=O)c1ccccc1 17.8 µM [activator, partial curve, poor fit]
COc1ccc(C(=O)Nc2onc3c2CCCC3)cc1 7.08 µM [activator, full curve, poor fit]
O=C(Nc1nc2ccccc2[nH]1)c1ccc(Br)o1 35.5 µM [activator, single point]
O=C(CSc1nccn1-c1ccc(Cl)cc1)N1CCCc2ccccc21 11.2 µM [activator, single point]
Cc1cccc(CS(=O)(=O)CC2Nc3ccc(C(=O)NCc4ccccc4)cc3NC2=O)c1 (stereo not given) 17.8 µM [activator, partial curve]
CCc1ccc(NC(=S)Nc2ccc(S(=O)(=O)Nc3ncccn3)cc2)cc1 11.2 µM [activator, partial curve]
Cc1ccc(S(=O)(=O)NC(=O)COc2ccc(Cl)cc2Cl)cc1 7.08 µM [activator, partial curve]
CCOC(=O)c1cc(-c2ccccc2)nn1CC1CC(c2ccc(Cl)cc2)=NO1 (stereo not given) 35.5 µM [activator, single point]
Nn1c(-c2ccccc2)cc(-c2ccccc2)cc1=O 35.5 µM [activator, single point]
COc1ccccc1N1CCN(C(=O)C2c3ccccc3Oc3ccccc32)CC1 20 µM [activator, single point]
COc1ccc(CNC(=O)c2cnc(N3CCCC3)nc2C)cc1 35.5 µM [activator, partial curve]
NS(=O)(=O)c1ccc(N=Nc2ccc(O)c3ncccc23)cc1 10 µM [activator, partial curve]
CCn1c(SCc2ccccc2Cl)nc2nc3c(cc2c1=O)CCCC3 35.5 µM [activator, single point]
CC1CC(C)CN(C(=O)CSc2nnc(-c3ccc(Cl)s3)o2)C1 (stereo not given) 17.8 µM [activator, single point]
O=C(/C=C/c1ccccc1)NCCC1=CCCCC1 2.51 µM [activator, full curve]
Cn1ccsc1=NC(=O)c1ccc(Cl)c([N+](=O)[O-])c1 28.2 µM [activator, partial curve]
Cc1nccc(-c2cc(-c3ccc(Cl)cc3Cl)no2)n1 3.16 µM [activator, partial curve]
CN(Cc1ccccc1F)c1ncnc2sccc12 14.1 µM [activator, single point]
O=C(O)/C=C\C(=O)Nc1ccccc1C#Cc1ccccc1 12.6 µM [activator, single point]
Cc1ccccc1C(=O)Nc1nc2c(s1)CC(C(C)(C)C)CC2 (stereo not given) 12.6 µM [activator, single point]
COc1ccc2cc(C(=O)N3CCCC(Nc4ccc(F)cc4)C3)n(C)c2c1 (stereo not given) 35.5 µM [activator, single point]
CCCCCCC(=O)N1CCCC(c2nc(-c3cccc(OC)c3)no2)C1 (stereo not given) 31.6 µM [activator, single point]
O=c1cnn(Cc2ccc(Cl)c(Cl)c2)c2ccccc12 17.8 µM [activator, partial curve]
NN(Cc1ccccc1)C(=S)Nc1ccc(Cl)c(Cl)c1 11.2 µM [activator, partial curve]
O=c1ccc(/C=C/c2ccccc2)nn1Cc1ccc(F)cc1 17.8 µM [activator, single point]
Cc1sc2nc(SCC(=O)NCc3ccco3)[nH]c(=O)c2c1C 7.08 µM [activator, full curve, poor fit]
CN(C)CCOC(=O)C12CC3CC(CC(C3)C1)C2 35.5 µM [activator, single point]
CCC(C)COC(=O)c1ccc(C(=O)O)cc1 (stereo not given) 35.5 µM [activator, single point]
CCOC(=O)C1CCN(c2ncnc3nc[nH]c23)CC1 11.2 µM [activator, partial curve]
CC1(C(=O)Nc2cccc(C#N)c2)CCN1C(=O)Cc1ccc(-c2ccccc2)cc1 (stereo not given) 35.5 µM [activator, partial curve]
CCOC(=O)C1=CN(CC2CCCCC2)CCC1=O 35.5 µM [activator, partial curve, poor fit]
OC1CCCN(c2c3c(nc4cc(-c5cccc(F)c5)nn24)CCCC3)C1 (stereo not given) 25.1 µM [activator, single point]
C=Cc1ccc(Cn2c(=O)n(-c3ccccc3C)c(=O)c3c4c(sc32)CN(C(C)=O)CC4)cc1 28.2 µM [activator, partial curve]
Nc1ccccc1Sc1c[nH]c2ccccc12 17.8 µM [activator, partial curve]
Nc1cccc(C2=Nc3cccc4cccc(c34)N2)c1 6.31 µM [activator, partial curve, poor fit]
Cc1ccc(Cc2nc3ccccc3nc2SCC(=O)N2CCCCC2)cc1 11.2 µM [activator, partial curve]
Cc1ccc(-c2ocnc2C(=O)Nc2ccccc2NC(=O)c2ccccn2)cc1 22.4 µM [activator, single point]
CN1CCN(CC/C=C2/c3ccccc3Sc3ccc(S(=O)(=O)N(C)C)cc32)CC1 35.5 µM [activator, partial curve]

Potency, active:
Cn1ccc2c(-c3ccc(C(=O)O)cc3)cc3c(c21)C1CCC3C1 (stereo not given) 28.2 µM
CC(=O)Nc1ccc(NCN2C(=O)C3C4CCC(C4)C3C2=O)cc1 (stereo not given) 25.1 µM
COc1ccc(S(=O)(=O)NCc2cccn2Cc2cccc(C)c2)cc1OC 35.5 µM
O=C(c1c(Cl)nc2sccn12)N1CCN(c2cccc(Cl)c2)CC1 14.1 µM
Cc1cccc2sc(N(Cc3cccnc3)C(=O)C3CCCCC3)nc12 3.55 µM
Cc1ccc(C(=O)c2cc([N+](=O)[O-])ccc2N2CCOCC2)cc1 35.5 µM
Clc1nc(Cl)nc(NCCC2=CCCCC2)n1 10 µM
COc1ccc(Br)cc1CNC(=O)CCC(=O)N1CCSc2ccccc21 22.4 µM
Cc1c(Cl)cccc1NC(=S)NCCc1ccc(C(F)(F)F)cc1 14.1 µM
O=C(NCCc1ccc(Cl)cc1)c1cnc2n(c1=O)CCS2 35.5 µM
COc1ccc2ccccc2c1C(=O)/C=C\c1ccoc1 11.2 µM
OC(c1cccc(Cl)c1)c1nc(-c2ccc3c(c2)OCO3)cs1 (stereo not given) 31.6 µM

Growth rescue (activation), inconclusive:
CC(C)(C)c1nnc(NS(=O)(=O)c2cc(Cl)ccc2Cl)s1 -31.3% [activator]

Growth rescue (activation), inactive:
COc1cccc(C(=O)Nc2ccc(NC(=O)Cc3ccccc3)cc2)c1 -17.2%
O=C(CSc1c2c(nc3ccc(Cl)cc13)CCCC2)N1CCN(C(=O)c2ccco2)CC1 5.97%
NNC(=O)Cn1c2ccccc2c2ccccc21 -23.4%
CCOc1ccc(-c2nc(C#N)c(NCc3ccc4c(c3)OCO4)o2)cc1 20.9%
CCOC(=O)C1=C(C)N(CCCCCC(=O)O)C(=O)NC1c1ccc(Cl)cc1 (stereo not given) 0%
COC(=O)c1ccc(N/C(=N/S(=O)(=O)c2ccccc2)c2ccccc2)cc1 14.5%
Brc1ccc(C2Nc3cccc4cccc(c34)N2)s1 -1.27%
O=[N+]([O-])c1ccc(/C=N/N2CCN(c3ccncc3S(=O)(=O)N3CCCCC3)CC2)cc1 14.5%
CCc1ccc2[nH]c(=O)c(C3C(C#N)=C(N)Oc4c3ccc3cccnc43)cc2c1 (stereo not given) 4.14%
CC(=O)c1c(C)n(-c2cccc(C)c2)c2ccc(OC(=O)COc3ccccc3)cc12 4.64%
COc1cccc(-c2cc(C(=O)NCCc3ccc(C)cc3)[nH]n2)c1 0%
CN1C(=O)C2CCCCN2c2ccc(C(=O)NCc3ccccc3Br)cc21 (stereo not given) 31.4%
CC1Cc2cc(S(=O)(=O)NCc3ccc(F)cc3)ccc2N1C(=O)C1CCC1 (stereo not given) 21.2%
Cc1[nH]nc2c1C(c1ccc(F)cc1)C(C#N)=C(N)O2 (stereo not given) -5.97%
C=C(C)COc1ccc(-c2ncncc2-c2ccc(Br)cc2)c(O)c1 8.09%
COc1cc(OC)cc(C(=O)N2CCCc3ccccc32)c1 4.14%
O=c1oc2c(F)cc(F)cc2cc1S(=O)(=O)c1ccc(F)cc1 13.9%
Cc1nc(C)c(CCNS(=O)(=O)c2ccc(C)c(C)c2)s1 4.47%

Source: PubChem BioAssay AID652104 (National Center for Advancing Translational Sciences (NCATS), 2013)
